The values that follow come from PMC4402527.

Protein sequences, listed by entry. Tags and fused reporters are not part of them.
UniProt P60842: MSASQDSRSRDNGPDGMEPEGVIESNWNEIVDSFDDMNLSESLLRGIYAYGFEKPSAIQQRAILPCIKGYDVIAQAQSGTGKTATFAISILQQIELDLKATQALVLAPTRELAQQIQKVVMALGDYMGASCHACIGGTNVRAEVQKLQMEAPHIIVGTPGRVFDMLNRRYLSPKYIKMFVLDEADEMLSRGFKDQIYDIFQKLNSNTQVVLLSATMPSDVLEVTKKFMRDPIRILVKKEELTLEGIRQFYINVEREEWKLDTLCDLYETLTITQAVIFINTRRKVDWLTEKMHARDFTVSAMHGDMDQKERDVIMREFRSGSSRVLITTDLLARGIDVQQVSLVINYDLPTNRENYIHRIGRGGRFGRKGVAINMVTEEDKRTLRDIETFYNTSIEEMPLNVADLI
UniProt P55884: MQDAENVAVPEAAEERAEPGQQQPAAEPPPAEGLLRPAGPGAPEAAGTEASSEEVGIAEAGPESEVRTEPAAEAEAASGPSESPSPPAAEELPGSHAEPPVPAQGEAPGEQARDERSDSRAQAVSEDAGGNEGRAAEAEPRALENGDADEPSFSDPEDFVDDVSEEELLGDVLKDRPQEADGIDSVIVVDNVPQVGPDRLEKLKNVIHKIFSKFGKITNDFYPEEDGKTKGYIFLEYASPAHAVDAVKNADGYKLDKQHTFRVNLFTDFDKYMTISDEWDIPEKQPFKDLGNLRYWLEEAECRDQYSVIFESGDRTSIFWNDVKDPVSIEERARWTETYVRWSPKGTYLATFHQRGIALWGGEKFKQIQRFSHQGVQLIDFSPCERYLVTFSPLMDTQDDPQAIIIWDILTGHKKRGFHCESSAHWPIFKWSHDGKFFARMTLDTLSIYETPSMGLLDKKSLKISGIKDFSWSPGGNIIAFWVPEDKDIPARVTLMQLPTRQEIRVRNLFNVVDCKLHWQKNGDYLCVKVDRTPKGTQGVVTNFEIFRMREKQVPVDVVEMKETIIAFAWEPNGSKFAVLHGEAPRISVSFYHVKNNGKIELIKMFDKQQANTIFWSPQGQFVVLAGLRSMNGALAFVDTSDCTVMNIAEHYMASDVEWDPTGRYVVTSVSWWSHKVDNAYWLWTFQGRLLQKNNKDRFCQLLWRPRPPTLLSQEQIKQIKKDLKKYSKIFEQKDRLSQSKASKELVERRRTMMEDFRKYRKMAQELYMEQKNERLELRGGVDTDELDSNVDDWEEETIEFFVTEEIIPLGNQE

Test in all cases: co-IP; HEK293T transfected 24 h with Flag-tagged DAP5 constructs; lysis in buffer B (20 mM HEPES-KOH pH 7.6, 100 mM KCl, 0.5 mM EDTA, 0.4% NP-40, 20% glycerol); anti-Flag-conjugated beads, elution with Flag peptide; western blot of endogenous factors
For one experiment, the target named is T1, Flag-DAP5 N86A (human) (UniProt P78344).
T1 sequence: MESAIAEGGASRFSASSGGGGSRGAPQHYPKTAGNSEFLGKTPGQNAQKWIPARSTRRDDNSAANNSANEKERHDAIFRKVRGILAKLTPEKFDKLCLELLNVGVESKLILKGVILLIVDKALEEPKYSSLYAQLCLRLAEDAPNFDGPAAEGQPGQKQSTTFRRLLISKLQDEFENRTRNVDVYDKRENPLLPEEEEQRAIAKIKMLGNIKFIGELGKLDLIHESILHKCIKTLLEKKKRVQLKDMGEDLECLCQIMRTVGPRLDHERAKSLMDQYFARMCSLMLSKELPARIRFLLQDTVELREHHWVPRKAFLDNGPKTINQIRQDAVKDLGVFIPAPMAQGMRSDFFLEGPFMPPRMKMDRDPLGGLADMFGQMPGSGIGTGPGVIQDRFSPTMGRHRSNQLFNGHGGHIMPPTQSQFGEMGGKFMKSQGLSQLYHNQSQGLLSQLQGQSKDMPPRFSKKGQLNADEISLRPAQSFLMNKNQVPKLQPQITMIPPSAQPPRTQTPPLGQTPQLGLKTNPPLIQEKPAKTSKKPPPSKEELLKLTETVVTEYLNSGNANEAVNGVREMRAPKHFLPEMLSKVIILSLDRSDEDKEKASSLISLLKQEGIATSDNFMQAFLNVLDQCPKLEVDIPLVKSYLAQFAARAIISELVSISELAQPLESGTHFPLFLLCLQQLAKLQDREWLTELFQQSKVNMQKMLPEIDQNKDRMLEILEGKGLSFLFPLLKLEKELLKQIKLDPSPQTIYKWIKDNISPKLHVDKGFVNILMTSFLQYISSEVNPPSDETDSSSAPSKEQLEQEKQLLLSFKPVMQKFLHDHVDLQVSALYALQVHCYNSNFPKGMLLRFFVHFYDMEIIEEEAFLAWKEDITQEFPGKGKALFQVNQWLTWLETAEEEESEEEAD

For experiment [1], the target named is T2, Flag-DAP5 (wild type) (human) (UniProt P78344).
T2 sequence: T1 sequence with A86N

For another experiment, the target named is T3, Flag-DAP5 E862K (human) (UniProt P78344).
T3 sequence: T1 sequence with A86N, E862K

Substitutions are numbered along the chain they refer to. These are yes or no findings as the source states them, for the method shown. Binding seen in cells or lysates may run through a third protein. Some entries that bind do so weakly or less than the wild type. Where a sequence is shown, tags or fusion partners need not be part of it.

eIF4AI (from UniProt P60842 1-406): the results for the binding result (in the experiment with Flag-DAP5 N86A (human); in experiment [1]; with Flag-DAP5 E862K (human)) were “no binding”, “binds” and “binds”, respectively.
Take eIF3S9 (from UniProt P55884 1-814): the binding entry (in the experiment with Flag-DAP5 N86A (human); in experiment [1]; with Flag-DAP5 E862K (human)) was “binds” each time.
